Laboratory results: the supplement of paper PMC3334620
Whole data set: some 33,000 sequences, median “E-score (-0.5 to 0.5)” near -0.032, cut for the highest 2% near 0.36. The list shows a part of the results.

What follows are sequences tested against T1, Sko1 (UniProt Q02100) (assay: PBM E-score (8-mer binding enrichment) (E-score (-0.5 to 0.5)); higher = stronger / more preferred TF binding; most listed sequences are background and not binding sites). Conditions: protein concentration: 200 nM; construct: GST-full length.
T1 sequence: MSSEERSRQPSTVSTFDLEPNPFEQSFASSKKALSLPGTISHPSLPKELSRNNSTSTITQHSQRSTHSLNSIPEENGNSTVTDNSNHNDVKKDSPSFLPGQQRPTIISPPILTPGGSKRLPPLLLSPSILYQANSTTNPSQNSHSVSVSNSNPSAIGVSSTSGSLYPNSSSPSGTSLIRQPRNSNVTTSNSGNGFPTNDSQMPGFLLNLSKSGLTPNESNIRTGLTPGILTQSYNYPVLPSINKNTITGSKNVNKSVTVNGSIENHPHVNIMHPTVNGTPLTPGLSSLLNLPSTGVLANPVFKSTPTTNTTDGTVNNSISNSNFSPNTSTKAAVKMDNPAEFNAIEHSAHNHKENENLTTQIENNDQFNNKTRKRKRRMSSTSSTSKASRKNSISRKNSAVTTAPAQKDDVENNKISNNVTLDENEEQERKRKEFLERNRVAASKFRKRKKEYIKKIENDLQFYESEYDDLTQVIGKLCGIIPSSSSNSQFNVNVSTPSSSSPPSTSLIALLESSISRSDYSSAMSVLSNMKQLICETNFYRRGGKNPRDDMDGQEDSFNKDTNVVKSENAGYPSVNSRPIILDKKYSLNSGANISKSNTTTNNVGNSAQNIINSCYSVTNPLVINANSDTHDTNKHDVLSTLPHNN
Description: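 Universal 'all 10-mer' protein binding microarrays (Agilent AMADID 015681) probed with GST-tagged S. cerevisiae TFs (full-length or DBD) made by in vitro transcription/translation (PURExpress), about 100-200 nM. Bound TF was detected with fluorescent anti-GST. Each ungapped 8-mer (which stands for itself and its reverse complement) is scored by the PBM enrichment score (E-score), a modified Wilcoxon-Mann-Whitney statistic from -0.5 to +0.5, computed with the Universal PBM Analysis Suite. Scale: above 0.35 generally sequence-specific binding.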

In order of falling “PBM E-score” value:
1. GCACGTAA  0.459
2. AATGATGT  0.427
3. ATAATTAC  0.376
4. AAATTCGT  0.339
5. ATATTAGA  0.318
6. ATATCGTA  0.315
7. ATCGCGTC  0.295
8. ACATAATG  0.295
9. GTTAGGTA  0.273
10. ACGATAAT  0.255
11. GGAGTAAA  0.236
12. ACACGCAT  0.219
13. CGTGTAAA  0.211
14. CAGCAACG  0.204
15. CTCGATAC  0.203
16. AATCTTTA  0.184
17. AGACTCAT  0.183
18. GTGAACAA  0.173
19. CTATTACA  0.164
20. TAGACATA  0.155
21. TCTCAAAA  0.154
22. CAGCTTTA  0.153
23. TGTCAACA  0.152
24. GTAGTAAA  0.152
25. ATGCGTTC  0.149
26. TAGCAAAA  0.145
27. CACCAAAC  0.144
28. CGCACAAA  0.139
29. ATTACTTG  0.137
30. AGATATAC  0.133
31. ACGATACA  0.128
32. GAAGTACA  0.123
33. AATACGGT  0.121
34. AAACGTTC  0.12
35. AACCATAT  0.119
36. ATGTAACC  0.101
37. ACAACTAC  0.0968
38. AACGCTGA  0.0912
39. GTGTTAAA  0.0912
40. ATTCGGAA  0.0857
41. AAGTGTAT  0.0856
42. GTCTTCAC  0.0843
43. AGTGCACG  0.076
44. CTACTTGC  0.0717
45. CGGAGCGA  0.0702
46. CTAGTATA  0.0687
47. CTGCGAAC  0.047
48. TACTTAAA  0.0436
49. ACTACTAA  0.0432
50. GCCAAGAA  0.0422
51. TGAGTCCA  0.0345
52. AACTAGCT  0.0319
53. GAGGAACA  0.0293
54. CGCTCCTA  0.027
55. AAAAGCTC  0.0185
56. AAGTCCTA  0.0174
57. GATCCTTA  0.0168
58. CGCGCTTC  0.0143
59. TCCCTGAA  0.012
60. CGCCGCAA  0.0119
61. CACGCTAC  0.00308
62. ATTCGGGG  0.00111
63. GGTGCGGA  0.00084
64. CCTAGAAA  0.00019
65. CGCTATAG  -0.00022
66. CGCGCTAC  -0.0053
67. AATCTGTC  -0.00887
68. ATAGAGCC  -0.0103
69. CAGGATGA  -0.0146
70. CGATTGCC  -0.0166
71. TGTAAAAA  -0.0197
72. AAAGACGC  -0.0197
73. CGATCGCC  -0.0229
74. CACCTGAC  -0.0244
75. GCCGGATA  -0.0275
76. ACCCCGAA  -0.0339
77. CGCCACGC  -0.0376
78. AGAGGACG  -0.0401
79. AGCTAGAA  -0.048
80. GCACCGTA  -0.0484
81. CCTAGACC  -0.0487
82. AACGTCCC  -0.0499
83. ACCAGTTG  -0.0516
84. TAAGCCCA  -0.0558
85. CAGACAAC  -0.0568
86. ATGCGCTG  -0.0588
87. AACTACAA  -0.0602
88. ACTAGCCA  -0.0674
89. CGAGTGTC  -0.0686
90. GAACCTCA  -0.069
91. AAACTTGG  -0.0696
92. ATCCGCAG  -0.0766
93. ATCGCGCC  -0.077
94. ACTTGACT  -0.0842
95. AGCTGAGA  -0.0858
96. ATCCAGCG  -0.0882
97. AAAGGAGA  -0.0924
98. CCTACTGA  -0.0932
99. CAAGTGGC  -0.0933
100. ACGCTTGC  -0.0935
101. CTATACAC  -0.107
102. AGCGCCTA  -0.108
103. GTGGACAA  -0.108
104. CAATATGC  -0.111
105. AGCAAAAG  -0.114
106. GGGTCGGA  -0.118
107. CCTATCAA  -0.119
108. CTACCATA  -0.12
109. AGGTTTTA  -0.121
110. TATCTCCA  -0.122
111. ACCGGCTA  -0.125
112. GTGACCAC  -0.13
113. ACACGGAG  -0.13
114. GGGTGGGA  -0.137
115. CCATGCCG  -0.137
116. GGGTTTCA  -0.138
117. GCGCCTAC  -0.139
118. AAAGACTC  -0.141
119. CGCAGGAA  -0.144
120. ATAAGCTG  -0.146
121. ACGAACCT  -0.146
122. AACAGCTT  -0.157
123. AACCAGGA  -0.158
124. ACTCGGTG  -0.166
125. CTATCAAG  -0.167
126. ATAGCCTC  -0.17
127. CTAGTCTA  -0.172
128. CGGGTGTC  -0.174
129. GAAGCCTC  -0.181
130. GTCTTCCA  -0.182
131. AACTCTAT  -0.186
132. GAACTCTC  -0.189
133. AAGACTCC  -0.19
134. CAGCGGCG  -0.192
135. ATCGGAGA  -0.203
136. CCAAGGTA  -0.203
137. CCCGGTAA  -0.206
138. AGTGCTAG  -0.209
139. AAAGGAGC  -0.21
140. CCAGCTAC  -0.21
141. CTGTGACC  -0.22
142. CTATAGAG  -0.222
143. GCCTTACC  -0.223
144. CTGGATCC  -0.226
145. ACTGGTGG  -0.227
146. ACTCAGAG  -0.228
147. CCTTGGTC  -0.23
148. CGGCTCCC  -0.235
149. AAGGACAG  -0.235
150. AATGGAGG  -0.235
151. AGGGTACT  -0.236
152. GCGACGGA  -0.237
153. GGTTAGGA  -0.24
154. GCTTGACC  -0.242
155. ATGGCTCC  -0.249
156. CCCCCCAA  -0.25
157. GGCAGGTA  -0.257
158. AAACAGGG  -0.262
159. CCTGCCAA  -0.265
160. CCCGTGGA  -0.274
161. GGTCCCGA  -0.278
162. AGAAGGCG  -0.279
163. CTCTTTCC  -0.279
164. CCGCCGTA  -0.282
165. GGACGACC  -0.288
166. ACAGGAGG  -0.289
167. AAGGGTCC  -0.3
168. ACTACCCC  -0.311
169. GAACGGCC  -0.314
170. AGTTCCGG  -0.347
171. GGGGCCTA  -0.353
172. CCCGGTCG  -0.381
